Laboratory results taken from the supplement of paper PMC9151546.
Many values rest on one well or one pass, so single values are uncertain.

Experiments:
CHO-K1 [1] = assay: micronucleus frequency (% of nucleated events); higher = more micronuclei (genotoxic)
CHO-K1 [2] = assay: hypodiploid nuclei frequency (% of nucleated events); higher = more hypodiploid events (aneugenic)
Protocol: (§1)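 Flow-cytometric in vitro micronucleus assay (Litron MicroFlow) in CHO-K1 cells in 96-well plates, 19 concentrations (4.5-200 µM, n=1 per concentration). Without S9, cells were exposed for 24 h and sampled at 48 h. With Aroclor 1254-induced rat liver S9, cells were exposed for 3-4 h and sampled at 27-28 h. Read-outs are %MN and %hypodiploid nuclei relative to nucleated events, and relative survival as the nuclei-to-bead ratio versus the 1% DMSO vehicle control (x100).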

CHO-K1 [3] = assay: relative survival (nuclei to bead ratio vs DMSO control) (% of vehicle control); higher = more surviving cells
Protocol: as §1
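Throughout, for hypodiploid nuclei frequency (% of nucleated events): hypodiploid nuclei gated on a flow cytometer with 488 nm excitation after SYTOX Green staining, cultures at 37 °C, positive controls vinblastine without S9 and cyclophosphamide with S9.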
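Throughout, for micronucleus frequency (% of nucleated events): cells lysed with nuclei stained by SYTOX Green, then micronucleus-gated events counted against nucleated events by flow cytometry with 488 nm excitation.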
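Throughout, for relative survival (nuclei to bead ratio vs DMSO control): Lysed-cell nuclei stained with SYTOX Green and counted against counting beads by flow cytometry at 488 nm excitation, with vinblastine (no S9) and cyclophosphamide (plus S9) as positive controls.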

OCCOCCO [Diethylene glycol]
Details | hypodiploid nuclei frequency, CHO-K1 [2] [%] | micronucleus frequency, CHO-K1 [1] [%] | relative survival, CHO-K1 [3]
concentration: 4.48 (µM), S9 metabolic activation: with S9, exposure time: 3-4 hours | 0.16 | 2.62 | 96.3
concentration: 4.48 (µM), S9 metabolic activation: without S9, exposure time: 24 hours | 0.64 | 1.86 | 84.1
concentration: 5.6 (µM), S9 metabolic activation: with S9, exposure time: 3-4 hours | 0.3 | 2.14 | 105
concentration: 5.6 (µM), S9 metabolic activation: without S9, exposure time: 24 hours | 0.68 | 1.88 | 88
concentration: 7 (µM), S9 metabolic activation: with S9, exposure time: 3-4 hours | 0.32 | 1.56 | 86.3
concentration: 7 (µM), S9 metabolic activation: without S9, exposure time: 24 hours | 0.56 | 1.62 | 86.2
concentration: 8.75 (µM), S9 metabolic activation: with S9, exposure time: 3-4 hours | 0.26 | 1.82 | 112
concentration: 8.75 (µM), S9 metabolic activation: without S9, exposure time: 24 hours | 0.42 | 2.06 | 73.9
concentration: 10.9 (µM), S9 metabolic activation: with S9, exposure time: 3-4 hours | 0.3 | 1.78 | 90.6
concentration: 10.9 (µM), S9 metabolic activation: without S9, exposure time: 24 hours | 0.5 | 1.78 | 97.6
concentration: 13.7 (µM), S9 metabolic activation: with S9, exposure time: 3-4 hours | 0.26 | 1.52 | 90.6
concentration: 13.7 (µM), S9 metabolic activation: without S9, exposure time: 24 hours | 0.56 | 1.8 | 99
concentration: 17.1 (µM), S9 metabolic activation: with S9, exposure time: 3-4 hours | 0.4 | 2.6 | 83.7
concentration: 17.1 (µM), S9 metabolic activation: without S9, exposure time: 24 hours | 0.48 | 2.42 | 100
concentration: 21.4 (µM), S9 metabolic activation: with S9, exposure time: 3-4 hours | 0.4 | 2.22 | 120
concentration: 21.4 (µM), S9 metabolic activation: without S9, exposure time: 24 hours | 0.92 | 1.96 | 92.3
concentration: 26.7 (µM), S9 metabolic activation: with S9, exposure time: 3-4 hours | 0.36 | 2.06 | 151
concentration: 26.7 (µM), S9 metabolic activation: without S9, exposure time: 24 hours | 0.7 | 2.06 | 109
concentration: 33.4 (µM), S9 metabolic activation: with S9, exposure time: 3-4 hours | 0.22 | 2 | 146
concentration: 33.4 (µM), S9 metabolic activation: without S9, exposure time: 24 hours | 0.7 | 2.3 | 109
concentration: 41.7 (µM), S9 metabolic activation: with S9, exposure time: 3-4 hours | 0.18 | 2.02 | 118
concentration: 41.7 (µM), S9 metabolic activation: without S9, exposure time: 24 hours | 0.7 | 1.92 | 109
concentration: 52.2 (µM), S9 metabolic activation: with S9, exposure time: 3-4 hours | 0.14 | 1.52 | 117
concentration: 52.2 (µM), S9 metabolic activation: without S9, exposure time: 24 hours | 0.62 | 2.04 | 116
concentration: 65.2 (µM), S9 metabolic activation: with S9, exposure time: 3-4 hours | 0.28 | 1.94 | 111
concentration: 65.2 (µM), S9 metabolic activation: without S9, exposure time: 24 hours | 0.58 | 1.82 | 115
concentration: 81.5 (µM), S9 metabolic activation: with S9, exposure time: 3-4 hours | 0.38 | 1.5 | 112
concentration: 81.5 (µM), S9 metabolic activation: without S9, exposure time: 24 hours | 0.62 | 2.06 | 123
concentration: 102 (µM), S9 metabolic activation: with S9, exposure time: 3-4 hours | 0.24 | 1.7 | 123
concentration: 102 (µM), S9 metabolic activation: without S9, exposure time: 24 hours | 0.84 | 2.76 | 122
concentration: 127 (µM), S9 metabolic activation: with S9, exposure time: 3-4 hours | 0.26 | 1.32 | 103
concentration: 127 (µM), S9 metabolic activation: without S9, exposure time: 24 hours | 0.6 | 2.7 | 135
concentration: 159 (µM), S9 metabolic activation: with S9, exposure time: 3-4 hours | 0.38 | 2.26 | 94.5
concentration: 159 (µM), S9 metabolic activation: without S9, exposure time: 24 hours | 0.96 | 3.34 | 111
concentration: 199 (µM), S9 metabolic activation: with S9, exposure time: 3-4 hours | 0.46 | 2.2 | 78.5
concentration: 199 (µM), S9 metabolic activation: without S9, exposure time: 24 hours | 1.02 | 2.9 | 120

Cc1ccccc1N [2-Methylaniline]
Details | hypodiploid nuclei frequency, CHO-K1 [2] [%] | micronucleus frequency, CHO-K1 [1] [%] | relative survival, CHO-K1 [3]
concentration: 4.53 (µM), S9 metabolic activation: with S9, exposure time: 3-4 hours | 0.2 | 1.16 | 139
concentration: 4.53 (µM), S9 metabolic activation: without S9, exposure time: 24 hours | 0.76 | 1.26 | 124
concentration: 5.66 (µM), S9 metabolic activation: with S9, exposure time: 3-4 hours | 0.26 | 1.66 | 125
concentration: 5.66 (µM), S9 metabolic activation: without S9, exposure time: 24 hours | 0.44 | 1.14 | 104
concentration: 7.07 (µM), S9 metabolic activation: with S9, exposure time: 3-4 hours | 0.24 | 1.54 | 138
concentration: 7.07 (µM), S9 metabolic activation: without S9, exposure time: 24 hours | 0.78 | 1.24 | 105
concentration: 8.84 (µM), S9 metabolic activation: with S9, exposure time: 3-4 hours | 0.12 | 1.44 | 114
concentration: 8.84 (µM), S9 metabolic activation: without S9, exposure time: 24 hours | 0.52 | 1.28 | 120
concentration: 11.1 (µM), S9 metabolic activation: with S9, exposure time: 3-4 hours | 0.34 | 1.16 | 130
concentration: 11.1 (µM), S9 metabolic activation: without S9, exposure time: 24 hours | 0.64 | 0.98 | 99.1
concentration: 13.8 (µM), S9 metabolic activation: with S9, exposure time: 3-4 hours | 0.24 | 1.46 | 136
concentration: 13.8 (µM), S9 metabolic activation: without S9, exposure time: 24 hours | 0.44 | 1.36 | 125
concentration: 17.3 (µM), S9 metabolic activation: with S9, exposure time: 3-4 hours | 0.3 | 1.34 | 136
concentration: 17.3 (µM), S9 metabolic activation: without S9, exposure time: 24 hours | 0.44 | 1.36 | 92.8
concentration: 21.6 (µM), S9 metabolic activation: with S9, exposure time: 3-4 hours | 0.3 | 1.2 | 127
concentration: 21.6 (µM), S9 metabolic activation: without S9, exposure time: 24 hours | 0.48 | 1.32 | 87.8
concentration: 27 (µM), S9 metabolic activation: with S9, exposure time: 3-4 hours | 0.34 | 0.76 | 150
concentration: 27 (µM), S9 metabolic activation: without S9, exposure time: 24 hours | 0.58 | 1.56 | 125
concentration: 33.7 (µM), S9 metabolic activation: with S9, exposure time: 3-4 hours | 0.2 | 0.92 | 163
concentration: 33.7 (µM), S9 metabolic activation: without S9, exposure time: 24 hours | 0.74 | 2.96 | 120
concentration: 42.2 (µM), S9 metabolic activation: with S9, exposure time: 3-4 hours | 0.22 | 0.82 | 169
concentration: 42.2 (µM), S9 metabolic activation: without S9, exposure time: 24 hours | 0.9 | 4.92 | 128
concentration: 52.7 (µM), S9 metabolic activation: with S9, exposure time: 3-4 hours | 0.24 | 1.12 | 130
concentration: 52.7 (µM), S9 metabolic activation: without S9, exposure time: 24 hours | 0.82 | 2.28 | 112
concentration: 65.9 (µM), S9 metabolic activation: with S9, exposure time: 3-4 hours | 0.22 | 1.34 | 143
concentration: 65.9 (µM), S9 metabolic activation: without S9, exposure time: 24 hours | 1.08 | 1.4 | 137
concentration: 82.3 (µM), S9 metabolic activation: with S9, exposure time: 3-4 hours | 0.46 | 0.94 | 109
concentration: 82.3 (µM), S9 metabolic activation: without S9, exposure time: 24 hours | 1.16 | 3.62 | 117
concentration: 103 (µM), S9 metabolic activation: with S9, exposure time: 3-4 hours | 0.26 | 0.92 | 114
concentration: 103 (µM), S9 metabolic activation: without S9, exposure time: 24 hours | 0.96 | 1.28 | 107
concentration: 129 (µM), S9 metabolic activation: with S9, exposure time: 3-4 hours | 0.26 | 1.52 | 116
concentration: 129 (µM), S9 metabolic activation: without S9, exposure time: 24 hours | 1.22 | 1.74 | 101
concentration: 161 (µM), S9 metabolic activation: with S9, exposure time: 3-4 hours | 0.2 | 1.14 | 127
concentration: 161 (µM), S9 metabolic activation: without S9, exposure time: 24 hours | 1.26 | 2.52 | 97.1
concentration: 201 (µM), S9 metabolic activation: with S9, exposure time: 3-4 hours | 0.22 | 1.02 | 109
concentration: 201 (µM), S9 metabolic activation: without S9, exposure time: 24 hours | 1.36 | 2.32 | 82.2
